Measured values published in PubChem BioAssay AID1476 (National Center for Advancing Translational Sciences (NCATS), 2009).
Among all 200,000 compounds or so, about 4,500 (2.2%) were called active. The inconclusive results got no clear call from the source; some entries with a clear call stand among them for comparison. Calls follow the shape of the dose curve; as a rule, active = well fitted inhibition curve with a large enough effect; inconclusive = small, poorly fitted or top-dose-only effect, or effect the other way; inactive = flat fitted curve, though single readings scatter. A potency beside an inconclusive call is a rough fit, not a confirmed value. Some structures have more than one record in an assay (separate samples or runs), and their calls can disagree.
Also: nearly all actives have a fitted effect of over 40% in size.
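For max response, negative = inhibition in this document: plate controls were enzyme without inhibitor for no effect and buffer without enzyme for full effect.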
Potency is read from the fitted curve at half-maximal effect; tags tell the direction and shape of the fitted curve.

What follows are compounds tested against Cruzipain (Trypanosoma cruzi) (UniProt P25779) (assay: qHTS Assay for Promiscuous and Specific Inhibitors of Cruzain (without detergent)). Conditions: purified cruzain, Z-FR-AMC fluorescence, no detergent.
Sequence of UniProt P25779 (P25779 whole entry, looked up): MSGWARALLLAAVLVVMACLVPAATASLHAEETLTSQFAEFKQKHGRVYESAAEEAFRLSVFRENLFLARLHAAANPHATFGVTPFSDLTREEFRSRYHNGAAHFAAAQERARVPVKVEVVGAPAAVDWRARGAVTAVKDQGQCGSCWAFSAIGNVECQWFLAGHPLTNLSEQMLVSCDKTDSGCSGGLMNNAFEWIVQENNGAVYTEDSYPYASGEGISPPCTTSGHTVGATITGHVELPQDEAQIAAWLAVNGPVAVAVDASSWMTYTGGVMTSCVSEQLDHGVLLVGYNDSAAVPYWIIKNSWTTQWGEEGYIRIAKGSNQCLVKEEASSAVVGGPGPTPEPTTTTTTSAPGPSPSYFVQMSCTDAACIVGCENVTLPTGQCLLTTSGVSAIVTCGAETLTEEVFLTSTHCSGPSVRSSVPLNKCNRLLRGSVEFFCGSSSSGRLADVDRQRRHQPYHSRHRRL
In short: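 Detergent-free condition (0.00005% Triton X-100) in acetate buffer pH 5.5 with DTT. 1.5 nM enzyme and compound were pre-mixed 15 min, then 2 uM Z-FR-AMC substrate added; reaction progress from fluorescence change between first and third reads (60 s).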
`O=C(/C(=N\Nc1ccc(Br)cc1)Sc1nnnn1-c1ccccc1)c1ccccc1` was tested, and the Potency was inconclusive: 39.8 µM [inhibitor, single point].
For `CCn1cc(S(=O)(=O)CC(=O)Nc2ccc(C)cc2)c2ccccc21`, the max response, negative = inhibition was inactive: -7.91%.
`O=C(COC(=O)c1ccccc1C(=O)N1CCN(c2ccc(F)cc2)CC1)NCc1ccccc1` was tested, and the Potency was inconclusive: 39.8 µM [activator, single point].
With `CCOC(=O)c1sc2nccc(N(C)C)c2c1N=CNOCc1ccccc1` the Potency was inconclusive: 31.6 µM [activator, single point].
For `Cc1ccc(C)c(-n2nnnc2SCC(=O)Nc2cccc(-c3nnc4n3CCCCC4)c2)c1`, the Potency was inconclusive: 31.6 µM [activator, single point].
For `CC(=O)n1c2c(c3ccccc31)OC(N)=C(C#N)C2c1ccc(C(C)C)cc1` (stereo not given), the Potency was inconclusive: 31.6 µM [inhibitor, single point].
In the case of `COc1ccc(CNC(=O)CN2C(=O)COc3ccccc32)c(OC)c1`, the max response, negative = inhibition is reported as inactive: 7.17%.
With `CCS(=O)(=O)N1CCC(C(=O)NCc2ccccn2)CC1` the max response, negative = inhibition was inactive: 1.96%.
For `Cc1ccc2nc(NC(=O)CSc3cc(C)[nH]c(=O)n3)sc2c1`, the max response, negative = inhibition was inactive: 2.57%.
For `CCCCn1c(S(=O)(=O)O)nc2ccccc21`, the max response, negative = inhibition was inactive: -5.54%.
For `Cc1ccc(C2=NC(C)(C)N=C2SCC(=O)Nc2ccc(Cl)cc2)cc1`, the Potency was inconclusive: 31.6 µM [activator, single point].
For `CCOc1ccc(NC(=O)CN(C)CC(=O)Nc2cc(Cl)ccc2C#N)cc1OCC`, the Potency was inconclusive: 39.8 µM [activator, single point].
With `O=C(c1cccs1)N1CCCc2cc(NS(=O)(=O)c3cc(F)ccc3F)ccc21` the max response, negative = inhibition was inactive: -24.2%.
For `CSc1nnc(NC(=O)CCc2ccccc2)s1`, the Potency was inconclusive: 39.8 µM [inhibitor, single point].
`Nc1nc(SCC(=O)N2N=C3/C(=C/c4ccco4)CCCC3C2c2ccco2)n[nH]1` (stereo not given) was tested, and the max response, negative = inhibition was inactive: -2.17%.
For `c1ccc(-c2nnc(-c3ccccc3)c(-c3c[nH]c4ccccc34)n2)cc1`, the Potency was inconclusive: 39.8 µM [inhibitor, single point].
For `O=C(O)c1ccc(COc2c(F)c(F)c(F)c(F)c2F)o1`, the Potency was active: 15.8 µM.
`COc1cc(CNC(=O)c2ccc(NC(=O)N3CCCCc4ccccc43)cc2)cc(OC)c1OC` was tested, and the Potency was inconclusive: 25.1 µM [activator, single point].
In the case of `COc1ccc(-c2ccnc3nc(Sc4ncc(C(F)(F)F)cc4Cl)nn23)cc1`, the Potency is reported as inconclusive: 25.1 µM [activator, partial curve].
With `CCN(C(=O)c1ccc2c(Cl)c3c(nc2c1)CCC3)c1cccc(C)c1` the Potency was inconclusive: 39.8 µM [activator, single point].
With `COc1ccc(-c2cc(-c3cccs3)nc3sc(C#N)c(N)c23)cc1` the Potency was inconclusive: 31.6 µM [inhibitor, single point].
For `Cc1cccc(C(=O)Nc2ccc3nc(SCC(=O)N4CCCC4)sc3c2)c1`, the Potency was inconclusive: 39.8 µM [activator, single point].
In the case of `COc1cccc(-n2nnc3c(=O)n(Cc4ccc(Br)cc4)cnc32)c1`, the Potency is reported as inconclusive: 31.6 µM [inhibitor, single point].
With `CCOc1ccccc1C(=O)N1CCC(n2nnc3cc(C(F)(F)F)ccc32)CC1` the Potency was inconclusive: 31.6 µM [activator, single point].
With `Cc1cc(CN2CCN(CCC#N)CC2)c(O)c(C2(C)CCCCC2)c1` the max response, negative = inhibition was inconclusive: 157% [activator].
`CCOC(=O)c1[nH]c(C)c(CCC(=O)N2CCN(c3cc(C)ccc3C)CC2)c1C` was tested, and the Potency was inconclusive: 20 µM [activator, partial curve].
In the case of `CCCCOCCOP(=O)(OCCOCCCC)OCCOCCCC`, the Potency is reported as inconclusive: 31.6 µM [activator, partial curve].
In the case of `COc1ccc(-c2nnn(CC(=O)N3CCN(c4ccccc4OC)CC3)n2)cc1`, the Potency is reported as inconclusive: 39.8 µM [activator, single point].
For `O=C1CC(c2ccccc2)Sc2nc(-c3ccccc3)c(-c3ccccc3)n21` (stereo not given), the Potency was inconclusive: 39.8 µM [inhibitor, single point].
With `O=C1/C(=C\c2ccc([N+](=O)[O-])cc2)CCc2ccccc21` the Potency was inconclusive: 31.6 µM [inhibitor, single point].
In the case of `O=C1C=C(c2cccs2)C[C@H](c2ccccc2)[C@H]1n1nnc([N+](=O)[O-])n1`, the Potency is reported as inconclusive: 31.6 µM [inhibitor, single point].
For `O=C(Nc1ccc(-c2csc(-c3ccccc3)n2)cc1)c1ccccc1Cl`, the Potency was inconclusive: 39.8 µM [inhibitor, single point].
`Cc1cccc2cc(CN(C(=O)c3cnccn3)C3CCCCC3)c(Cl)nc12` was tested, and the Potency was inconclusive: 39.8 µM [activator, single point].
For `COC(=O)c1ccc(NC(=O)CSc2nnnn2C2CCCCC2)cc1`, the Potency was inconclusive: 31.6 µM [inhibitor, single point].
With `COc1ccc(Cn2c(C3CC3)nc3ccc(NC(=O)c4ccco4)cc3c2=O)cc1` the max response, negative = inhibition was inactive: 17.9%.
With `Cc1ccc(NC(=O)Cn2nc(C)c3nn(-c4ccc(Cl)cc4)c(C)c3c2=O)cc1F` the max response, negative = inhibition was inactive: -18%.
With `COc1ccc(/C=C(\NC(=O)c2ccc(OC)c(OC)c2)C(=O)NCCc2c[nH]c3ccccc23)cc1` the Potency was inconclusive: 39.8 µM [activator, single point].
With `Nc1c(-c2nc(-c3ccccc3Cl)no2)nnn1-c1ccccc1C(F)(F)F` the max response, negative = inhibition was inactive: 38.6%.
`CC1=C(c2ccc(C)c(C)c2)S(=O)(=O)N=C1N1CCC(C(=O)NCc2ccc(N(C)C)cc2)CC1` was tested, and the Potency was inconclusive: 20 µM [activator, partial curve].
`CCOC(=O)c1sc(NS(=O)(=O)c2cc(C)ccc2C)nc1C` was tested, and the Potency was inconclusive: 0.631 µM [inhibitor, single point].
In the case of `N#Cc1ccccc1Cn1c(=O)n(Cc2ccc(C(=O)NCc3ccco3)cc2)c(=O)c2ccccc21`, the Potency is reported as inconclusive: 31.6 µM [inhibitor, single point].
In the case of `COc1ccc(-n2c(Cc3cccn3C)nnc2SCC(=O)Nc2cc(C)cc(C)c2)cc1`, the Potency is reported as inconclusive: 25.1 µM [activator, single point].
In the case of `CC(Oc1ccccc1)C(=O)Nc1c(C(=O)Nc2cccc(F)c2)oc2ccccc12` (stereo not given), the max response, negative = inhibition is reported as inactive: -26.9%.
`CN(C)S(=O)(=O)c1cccc(C(=O)N(Cc2ccc(F)cc2)Cc2ccco2)c1` was tested, and the Potency was inconclusive: 31.6 µM [activator, single point].
In the case of `COC(=O)N1CCC2(CC1)CN(C(=O)Nc1cccc(F)c1)C2`, the max response, negative = inhibition is reported as inactive: 11.4%.
For `CCc1nnc(NC(=O)CSc2nnc(CNc3cccc(C)c3)n2-c2ccccc2)s1`, the Potency was inconclusive: 39.8 µM [activator, single point].
`COc1cc([C@@H]2c3cc4c(cc3C(OC3OC5COC(C)OC5C(O)C3O)C3COC(=O)[C@@H]32)OCO4)cc(OC)c1O` (stereo not given in full) was tested, and the max response, negative = inhibition was inactive: 12.7%.
With `COc1ccc(CCn2c(C)c(C(C)=O)c3cc(OC(=O)c4ccco4)ccc32)cc1OC` the Potency was inconclusive: 31.6 µM [activator, single point].
In the case of `CC(C)NC(=O)NC(=O)COC(=O)CCOc1ccccc1`, the Potency is reported as inconclusive: 1.58 µM [inhibitor, single point].
For `Cc1cccc(OCC(=O)Nc2ccccc2-c2ccccc2)c1`, the Potency was inconclusive: 7.94 µM [inhibitor, single point].
In the case of `COc1ccc(S(=O)(=O)N2CCC(n3c(C)nc4cccnc43)CC2)cc1Cl`, the Potency is reported as inconclusive: 39.8 µM [activator, single point].
`COc1cc2c(cc1OC)C(C)N(C(=O)Cn1ncc3c1-c1cc(C)ccc1OC3)CC2` (stereo not given) was tested, and the Potency was inconclusive: 31.6 µM [activator, single point].
In the case of `Cc1nn(C)cc1CNC(=O)Nc1ccc(Cl)cc1`, the Potency is reported as inconclusive: 0.158 µM [activator, single point].
`O=C(CCc1ccc(Oc2cc([N+](=O)[O-])cc([N+](=O)[O-])c2)cc1)Nc1cccc(Cl)c1` was tested, and the Potency was inconclusive: 31.6 µM [inhibitor, single point].
In the case of `COc1ccc(NC(=O)COC(=O)CNS(=O)(=O)c2ccc(F)c(F)c2F)cc1OC`, the Potency is reported as inconclusive: 25.1 µM [inhibitor, single point].
With `Cc1cc(SC(C)C(=O)NCC(=O)Nc2ccc(F)c(F)c2F)nc2ccccc12` (stereo not given) the Potency was inconclusive: 25.1 µM [inhibitor, single point].
In the case of `O=C(c1ccccc1)n1nc(-c2ccco2)nc1NCc1ccccc1Cl`, the max response, negative = inhibition is reported as inactive: -2.23%.
In the case of `O=C(COC(=O)/C=C/c1nc2ccccc2s1)Nc1cccc2ccccc12`, the Potency is reported as active: 6.31 µM.
For `COc1cccc(N/C(SCc2cccc([N+](=O)[O-])c2)=C(/C#N)C(=O)NCc2cccs2)c1`, the Potency was inconclusive: 39.8 µM [inhibitor, single point].
`CC(C)=CCc1c2c(c3occ(-c4ccc(O)c(O)c4)c(=O)c3c1O)C=CC(C)(C)O2` was tested, and the Potency was active: 25.1 µM and the max response, negative = inhibition was inactive: -17.4%.
In the case of `O=C(CSc1nnc(-c2ccco2)c(-c2ccco2)n1)Nc1ccccc1`, the Potency is reported as active: 20 µM.
With `Cc1nn(C)c(C)c1S(=O)(=O)N(CC(=O)N1CCc2ccccc21)c1ccc(C(C)C)cc1` the Potency was inconclusive: 25.1 µM [activator, partial curve].
For `Cc1ccc(OCC(=O)Nc2ccc3nc(Nc4cccc(Cl)c4)cc(C)c3c2)cc1`, the Potency was active: 20 µM.
With `O=C(c1cc(C(F)(F)F)cc(C(F)(F)F)c1)N1CCC[C@@]2(CCN(c3ncccn3)C2)C1` the Potency was inconclusive: 39.8 µM [activator, single point].
